Data reported in patent US7592316B2, “Peptides as NS3-serine protease inhibitors of hepatitis C virus” (Schering Corporation, priority 2000, dated 2009).
*1 amine or outer side, *2 acyl side, *3 side chain or, on linkers, in order; H or OH if unused. Where a SMILES comes first, the peptide text is derived from it. [ ]: non-standard residue; d: D form. The star is where a group is joined. Pro(3R,4S-CMe2) = CC1(C)[C@@H]2[C@@H](C(=O)O)NC[C@@H]21; X12 = CCC[C@H](N[*:1])C(=O)C(=O)[*:2]; Phg = N[C@H](C(=O)O)c1ccccc1; Tle = CC(C)(C)[C@H](N)C(=O)O; X21 = CC(C)S(=O)(=O)*

molecular target: HCV NS3/NS4A protease (strain 1a) (Hepatitis C virus genotype 1a, UniProt P27958); assay: biochemical; details: Table 5; HCV NS3/NS4A protease, 30° C., pH 6.5; read-out: Ki* Range

Ki [nM]	Structure (SMILES)
101 to 1000	C=CCCC(NC(=O)[C@@H]1C2C(CN1C(=O)C(NC(=O)OC(C)(C)C)C(C)(C)C)C2(C)C)C(=O)C(=O)NCCS(=O)(=O)C(C)(C)C (some centres unmarked)
1 to 100	CCCC(NC(=O)[C@@H]1[C@@H]2[C@H](CN1C(=O)[C@@H](NC(=O)OC(C)(C)C)C1Cc3ccccc3C1)C2(C)C)C(=O)C(=O)NC (some centres unmarked)
> 1000	CCCC(NC(=O)[C@@H]1[C@H]2[C@@H](CN1C(=O)[C@@H](NC(=O)OC(C)(C)C)C1CCCCC1)C2(C)C)C(=O)C(=O)NCC1[C@H](C=C(C)C)C1(C)C (some centres unmarked)
101 to 1000	CCCC(NC(=O)[C@@H]1C2C(CN1C(=O)[C@@H](NC(=O)OC(C)(C)C)C1Cc3ccccc3C1)C2(C)C)C(=O)C(=O)NCCC(=O)OC(C)(C)C (some centres unmarked)
1 to 100	C=CCCNC(=O)C(=O)C(CCC=C)NC(=O)[C@@H]1[C@H]2[C@@H](CN1C(=O)C(NC(=O)OC(C)(C)C)C1CCCCC1)C2(Cl)Cl (some centres unmarked)

same assay, conditions: Table 5; HCV NS3/NS4A protease, spectrophotometric assay, 30° C., pH 6.5; read-out: Ki* Range

Ki [nM]	Structure (SMILES)
> 1000	CC(C)(C)OC(=O)N[C@H](C(=O)N1C[C@H]2[C@@H]([C@H]1C(=O)NC1(C(=O)C(N)=O)CC1)C2(C)C)C1CCCCC1
> 1000	C=CCNC(=O)C(=O)C(CC(C)C)NC(=O)[C@@H]1[C@@H]2[C@H](CN1C(=O)[C@@H](NC(=O)OC(C)(C)C)C1CCCCC1)C2(C)C (some centres unmarked)
> 1000	C=CCNC(=O)C(=O)C(CCC)NC(=O)[C@@H]1C2C(CN1C(=O)C(NCCc1ccccc1)C(C)(C)C)C2(C)C (some centres unmarked)
> 1000	CCCC(NC(=O)[C@@H]1[C@@H]2CCC(C)(C)OC2CN1C(=O)[C@@H](NC(=O)OC(C)(C)C)C(C)(C)C)C(=O)C(=O)O (some centres unmarked)
> 1000	C=CCNC(=O)C(=O)C(CCC)NC(=O)[C@@H]1[C@H]2[C@@H](CN1C(=O)[C@@H](NC(=O)OCC(C)C)C1CCCC1)C2(C)C (some centres unmarked)
101 to 1000	C=CCC(NC(=O)[C@@H]1[C@@H]2[C@H](CN1C(=O)[C@@H](NC(=O)OC(C)(C)C)C1CCCCC1)C2(C)C)C(=O)C(=O)O (some centres unmarked)
101 to 1000	CC(C)(C)OC(=O)N[C@H](C(=O)N1C[C@@H]2[C@H]([C@H]1C(=O)NC(CC1CCCC1)C(=O)C(N)=O)C2(C)C)C1CCCCC1 (some centres unmarked)
> 1000	CCCC(NC(=O)[C@@H]1CC(C)(C)CN1C(=O)[C@@H](NC(=O)O[C@H](C)C(C)C)C(C)(C)C)C(=O)C(N)=O (some centres unmarked)
1 to 100	CCC(C)NC(=O)N[C@H](C(=O)N1C[C@@H]2[C@H]([C@H]1C(=O)NC(CC1CC1)C(=O)C(N)=O)C2(C)C)C1Cc2ccccc2C1 (some centres unmarked)
> 1000	C=CCCCC(NC(=O)[C@@H]1[C@@H]2[C@H](CN1C(=O)[C@@H](NC(=O)OC(C)(C)C)C1CCCCC1)C2(C)C)C(=O)C(=O)OC (some centres unmarked)
> 1000	CCCCC(NC(=O)[C@@H]1[C@@H]2[C@H](CN1C(=O)[C@@H](NC(=O)OC(C)(C)C)C(C)(C)C)C2(C)C)C(=O)C(=O)NCCOC (some centres unmarked) [drawing 1703]
101 to 1000	C=CCNC(=O)C(=O)C(CCC1CC1)NC(=O)[C@@H]1[C@@H]2[C@H](CN1C(=O)[C@@H](NC(=O)OC(C)(C)C)C1CCCCC1)C2(C)C (some centres unmarked)
1 to 100	CC(C)(C)OC(=O)N[C@H](C(=O)N1C[C@@H]2[C@H]([C@H]1C(=O)NC(CC1CC1)C(=O)C(N)=O)C2(C)C)C1CC2CCCCC2C1 (some centres unmarked)

Structure (SMILES)	Ki [nM]
CCC[C@H](NC(=O)[C@@H]1[C@@H]2[C@H](CN1C(=O)[C@@H](NS(=O)(=O)C(C)C)C(C)(C)C)C2(C)C)C(=O)C(=O)NCC(=O)N[C@H](C(=O)N(C)C)c1ccccc1 (X21-[Tle][Pro(3R,4S-CMe2)][X12]G[Phg]-NMe2)	1 to 100

same assay, conditions: Table 6; HCV NS3/NS4A protease, 30° C., pH 6.5; read-out: Ki*

Ki [nM]	Structure (SMILES)
101 to 1000	C=CCCC(NC(=O)[C@@H]1[C@H]2C(CC)[C@H]2CN1C(=O)[C@@H](NC(=O)NC(C)(C)C)C(C)(C)C)C(=O)C(=O)NCCC(=O)N(C)Cc1ccccc1 (some centres unmarked)
101 to 1000	CC(C)(C)NC(=O)N[C@H](C(=O)N1C[C@H]2[C@@H]([C@H]1C(=O)N[C@H](CC1CCC1)C(=O)C(N)=O)C2(C)C)C(C)(C)C
101 to 1000	CN(C)C(=O)c1nc(CNC(=O)C(=O)C(CC2CCC2)NC(=O)[C@@H]2[C@@H]3[C@H](CN2C(=O)[C@@H](NC(=O)NC(C)(C)C)C(C)(C)C)C3(C)C)sc1-c1ccccc1 (some centres unmarked)

Structure (SMILES)	Ki [nM]
CC(=O)N[C@H](C(=O)N[C@H](C(=O)N1C[C@H]2C([C@H]1C(=O)NC(CC1CCC1)C(=O)C(N)=O)C2(C)C)C1CCCCC1)c1ccccc1 (some centres unmarked)	1 to 100
